# Data reported in ChEMBL document CHEMBL4888484, “Replenishing the malaria drug discovery pipeline: Screening and hit evaluation of the MMV Hit Generation Library 1 (HGL1) against asexual blood stage Plasmodium falciparum ,using a nano luciferase reporter read-out” (2022).
# Out of some 150,000 compounds screened, about 540 (0.36%) showed an effect of 50% or more. The list shows a part of the results.
# System: Plasmodium falciparum
# Assay: Primary screen in NF54 nanoGlo assay, in single point, at 2uM, 72h; a lower Z score goes with more inhibition
# Type: functional, Erythrocyte
# Conditions: timepoint 72 hour
Structure (SMILES),% Inhibition [%],Z score
Cc1nc2cc(-c3ccc(Br)cc3)nn2c(N)c1-c1ccccc1,2,-0.3
O=S(=O)(Nc1ccc2cc[nH]c2c1)c1cccc(Cl)c1,0,0.02
O=C(c1cn2ccnc(-c3ccc(F)cc3)c2n1)N1CCCCCC1,-11,1.6
CO[C@H]1C[C@@H](Cn2ccc(NC(=O)OC(C)(C)C)n2)N(Cc2c[nH]nc2C)C1,8,-1.2
COc1cccc(N2CCN(c3ccnc(N4CCN(c5cccc(OC)c5)CC4)n3)CC2)c1,14,-1.67
CCCc1nnc(NC(=O)N[C@@H](C)Cc2c(C)noc2C)s1,-17,1.54
N#Cc1nc(C(c2ccccc2)c2ccccc2)oc1NCCCn1ccnc1,7,-0.96
Cc1cc(Cl)cc(CN[C@H]2CCOC3(CC(C(=O)O)C3)C2)c1 (stereo partly drawn),19,-2.46
CCOCCCC(=O)Nc1c(F)cccc1NC(=O)OC(C)(C)C,-4,0.48
Cc1cc(C)n(CCC(=O)N2CCC(n3c(C)cnc3C3CCC3)CC2)n1,-13,1.72
CN(CCc1ccccc1)c1cc([C@H]2C[C@H](N)C2)nc(C2CC2)n1,5,-0.87
CNC(=O)[C@@H]1CCCN1C(=O)CNC(=O)c1ncccc1O,-9,1.84
Clc1ccc([C@@H]2CN(CCCc3cccnc3)CCO2)cc1,-6,1.19
CC1(C(N)=O)CN(C[C@@H](O)c2ccc(C(F)(F)F)cc2)C1,-15,1.59
CN(C)Cc1cc(CNC2CC(C)(c3ccccc3)C2)no1 (stereo not drawn),-6,0.85
COc1cccc(CN[C@H](c2cnn(C)c2)C2(CO)CCC2)c1C,4,-0.51
Cc1ccc(N(C)S(=O)(=O)c2cc(-c3nc(-c4ccc(Cl)cc4)no3)sc2C)cc1,-2,0.25
CN(C)c1ccc([C@H]2OCCC3(CCCCC3)O2)cc1,-2,0.23
COCc1ncc(C(=O)Nc2nc(CC3CC3)ns2)s1,-11,1.99
CC(C)(C)OC(=O)N1C[C@H](C(=O)Nc2nncs2)[C@@H](C(=O)Nc2nncs2)C1,22,-2.58
COc1ccc(CC(=O)N2CCCC[C@@H]2CCN2CCCCC2)cc1,-10,1.33

Structure (SMILES),% Inhibition [%],Z score
Cc1ncsc1CN[C@@H](C)C(C)(C)CO,0,0.01
O=C(CCc1nnn2c1CN(C(=O)c1cccc(F)c1)CC2)N1CCOCC1,-11,2.17
Cc1ccc(CNC(=O)Cn2c(N(C)Cc3ccccc3)nc(C)cc2=O)cc1,-19,1.71
CC(C)N(CCOC(=O)N(C)C)C1CCC1,-14,2.01
Cc1noc(COc2ccc(S(=O)(=O)c3ccccc3)cc2)n1,-16,1.86
O=C(NCc1ccccn1)c1nnc(Cc2cccc(F)c2)o1,-5,0.98
NC(=O)CN1CCCN(C(=O)c2cnc3ccccc3n2)CC1,33,-0.88
CCC[C@@H](CCC(=O)NC1CCCCC1)C(=O)O,6,-0.79
Cc1ccc(-n2[nH]c(C(=O)N3CC[C@@H](C(F)(F)F)C(C)(C)C3)cc2=O)cc1,-13,1.84
CCn1cc(CN2CCC(n3nccc3NC(=O)c3ccc4c(c3)OCO4)CC2)c(C)n1,0,0.02
COc1cc2c(cc1OC)CN(C(=O)c1ccc3ccn(C(C)C)c3c1)CC2,-6,0.89
CCCN(Cc1c(C)nn(-c2ccccc2)c1Oc1ccccc1OC)C(=O)c1ccc(Cl)cc1,10,-0.91
CC(C)n1nnnc1-c1ccc(NC(=O)Nc2cc[nH]n2)cc1F,-17,3.14
O=C1CN(C(=O)c2ccc3c(ccn3Cc3ccccc3)c2)CCN1,-6,0.97
Cc1cc(CS(=O)(=O)N2CCOC[C@H]2c2cccc(F)c2)no1,7,-1.14
CCN1C[C@H](C)C(=O)N(Cc2cccnc2)C1=O,-13,1.13
CN(C)CC(NC(=O)NC1CC2CCC1O2)c1ccc(Cl)cc1 (stereo not drawn),2,-0.24
CCCc1nc(-c2ncsc2Cl)no1,-4,0.72
CCCN1C(=O)c2cc(C(=O)NCCC(C)C)nn2C[C@@]1(C)C(=O)NC1CCCC1,17,-1.97
O=C(NCCc1cnc2c(Cl)cnn2c1)N1CCCC2(CCCC2)CC1,-2,0.42
C[C@H]1CCN(CCOc2ccc(NC(=O)c3cc4c(s3)CCNC4)cc2)C1,7,-1.1

Structure (SMILES),% Inhibition [%],Z score
Cc1[nH]c(CN2[C@@H]3CC[C@H]2CN(C)CC3)cc1C#N,-7,0.93
CN(C)Cc1nnc([C@H]2C[C@@H](NC(=O)c3conc3-c3ccccc3)C2)n1C,-11,1.93
C[C@@H](c1ccccc1F)N(C)S(=O)(=O)CC1CCOCC1,-6,0.68
O=C(NC(c1ccccc1)c1ccccc1)c1cc(-c2ccc(F)cc2)nn1-c1cccc(Cl)c1,-12,1.9
C/C(=C\c1ccccc1)C(=O)N1CC2CC1CS2(=O)=O (stereo not drawn),-12,1.38
O=C(C[C@H](c1cccc(C(F)(F)F)c1)c1c[nH]c2ccccc12)N1CCCCC1,-7,0.68
Cn1cnnc1[C@@H]1CCCN1c1ncc(Cl)cc1Cl,1,-0.21
COc1ccc(-c2cccc(-n3cncc3C(=O)NC3CCC[C@H]3OCc3ccccc3)c2)cc1OC (stereo partly drawn),-7,1.32
O=C(CNCCn1cccn1)NCc1cccs1,1,-0.14
Cc1ccc(OC[C@H]2c3ccsc3CCN2C(=O)CN(C(=O)C2CCCC2)C(C)(C)C)cc1,-23,2.03
CCCCc1nc(CN2CCc3[nH]cnc3[C@@H]2c2cnn(C)c2)c[nH]1,-4,0.55
COCCN(C(=O)[C@@H]1CCCO1)C1CCC(C)C1 (stereo partly drawn),-10,1.5
CCc1c(C)sc2c1CCN(CC(=O)Nc1ccc(F)cc1F)[C@@H]2c1ccccc1,7,-0.68
O=C(NCc1ccc(F)cc1)Nc1ccc2c(c1)CCN2S(=O)(=O)c1ccccc1,-14,1.85
CCn1cnnc1[C@H]1CCCN(Cc2cnc(-c3ccccc3)o2)C1,-10,1.65
CN(C)[C@@H](CNS(=O)(=O)Cc1ccccc1Cl)c1ccc2c(c1)CCO2,-11,1.76
CC[C@H](C)NC(=O)COCc1nnc(C(=O)Nc2cccc(F)c2)s1,0,0.03
Cc1nc(C(=O)N2CCC=C(F)C2)c(C)o1,-5,0.64
CCn1cc(C2OCCC2CNC(C)c2nnc(CC(C)C)o2)cn1 (stereo not drawn),0,0.01
CC1(C)NC(=O)c2cc(Br)ccc2O1,-12,1.19
O=C(Nc1nc(-c2ccccc2)cs1)c1ccc2c(c1)C(=O)N(Cc1ccncc1)C2=O,-4,0.6

Structure (SMILES),% Inhibition [%],Z score
Cc1cccn(CC(=O)NCC(=O)Nc2cccnc2)c1=O,-6,0.7
COCC[C@]1(NC(=O)c2ccc(F)cc2)CCN(C(=O)c2nccn2C)C1,2,-0.31
O=C(c1ccco1)N1CC(n2cnnc2[C@@H]2CCCO2)C1,34,-4.55
CCOC(=O)c1nnn2c1CO[C@H](c1ccc(Cl)cc1)C2,-11,1.25
CCOc1cccc(Cn2c(=O)c3sccc3n(CC(=O)Nc3ccccc3)c2=O)c1,36,-1.53
COC(=O)N[C@H](C(=O)Nc1cnn2ccccc12)C(C)C,-15,1.99
Cc1ccc(N(C(=O)c2cccs2)C(=O)c2cccs2)nc1,5,-0.6
Clc1ccc(OCc2ccc(-c3nc4c5cn[nH]c5ncn4n3)cc2)c(Cl)c1,31,-4.48
NC(=O)c1ccc2[nH]c(CN3CCN(c4ccccn4)CC3)cc(=O)c2c1,-12,1.51
O=C(c1ccc(C(F)(F)F)cc1)N1C[C@@H]2C[C@H]1C(=O)N2c1ccccc1F,-2,0.38
O=C(C[C@H]1CCCC1(F)F)Nc1cccc(-c2noc(C3CC3)n2)c1,-9,1.72
Nc1ccc(CC(=O)N(CC2CC2)CC2CC2)cc1,-9,1.02
COCCn1c(=O)n([C@H]2CCCN(C(=O)c3cccnc3)C2)c2ncccc21,-9,1.08
CC1CCC(NCC(CO)Cc2ccccn2)C(C)C1 (stereo not drawn),-11,1.22
O=C(Nc1cccc(OCC(F)F)n1)c1ccnnc1,-6,0.9
CCOCCCNc1oc(-c2cccnc2)nc1C#N,1,-0.13
CC(=O)Nc1ccc(S(=O)(=O)[C@H](C#N)c2nc3ccccc3nc2NC2CCCC2)cc1,-10,1.77
Cc1cc(C(=O)NCCCc2cnc3ncnn3c2)no1,14,-2.65
O=C(Nc1nc2c(ccc3ccccc32)s1)C1CCC1,-2,0.3
O=C(N[C@H]1C[C@@H]2C[C@H]1CN2C(=O)Nc1ccc(Cl)cc1F)c1cccs1,0,0
Cc1c(NC(=O)N2CC[C@H](O)C2)cccc1N(C)C,-1,0.12
